The campaign covered roughly 45,000 compounds. About 200 (0.44%) were called active. Not shown: some 7% with an inconclusive outcome. Calls follow the shape of the dose curve; as a rule, active = well fitted activation curve with a large enough effect; inconclusive = small, poorly fitted or top-dose-only effect; inactive = no such curve, though single readings can be large or run the other way. The list shows a part of the results.
Assay: qHTS of TDP-43 Inhibitors: NCGC Sytravon Library Screen; also: 0% is about no effect; nearly all actives have a fitted effect of over 55% in size
Settings: yeast TDP-43 toxicity rescue, BacTiter-Glo growth, 24 h; series mostly up to 46.1 µM; growth rescue (activation): at the top concentration
In short: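 TDP-43-expressing yeast, pregrown in raffinose, seeded at OD600 0.02 in galactose medium with compound for 24 hr at 30 deg C. Growth read by BacTiter-Glo luminescence, so rescue of toxicity appears as activation.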

| Compound | growth rescue (activation) |
| --- | --- |
| Cc1ccc(C)c(S(=O)(=O)NC(Cc2c[nH]c3ccccc23)C(=O)O)c1 (centres undefined) | inactive: -11.8% |
| CNC(=O)CO/N=C/c1ccc(N(C)C)cc1 | inactive: 4.1% |
| O=C(c1cccs1)N1CCCC(c2nc3c(nnn3Cc3cccc(Cl)c3)c(=O)[nH]2)C1 (centres undefined) | inactive: 17.5% |
| COc1ccc(N(CC(=O)NCCc2ccccc2)C(=O)c2csnn2)cc1 | inactive: -1.69% |
| CCNc1nc(NCC)nc(OCCNS(=O)(=O)c2ccccc2)n1 | inactive: 28.1% |
| Cn1nc(-c2ccc(N3CCOCC3)c(NS(=O)(=O)c3ccc(Cl)cc3)c2)c2ccccc2c1=O | inactive: 11.4% |
| c1ccc(OCCOc2cccc3cccnc23)cc1 | inactive: 15.8% |
| O=C(CCC(=O)c1cccs1)NNC(=O)c1cc(Cl)ccc1Cl | inactive: 15% |
| O=[N+]([O-])c1cccc(-c2nc3ccc([N+](=O)[O-])cc3[nH]2)c1 | inactive: 0.527% |
| CCCOc1ccc(-c2nc[nH]c2[N+](=O)[O-])cc1 | inactive: 7.62% |
| CC(C)C(=O)N1CCC1(C)C(=O)Nc1ccccc1OC(F)F (centres undefined) | inactive: 4.09% |
| CCCCCN(C(=O)NC(=O)Nc1ccccc1C)S(=O)(=O)c1ccccc1 | inactive: 8.48% |
| COc1ccc(C(=O)N2CCC(C)(C(=O)NS(=O)(=O)C3CC3)C2)cc1F (centres undefined) | inactive: -16.3% |
| Cc1cc(C)nc(N/N=C/c2c[nH]c3ccccc23)n1 | inactive: 11.9% |
| CN1CCCC(C)(C(=O)Nc2cccc(Oc3ccccc3)c2)C1 (centres undefined) | inactive: -4.37% |
| COc1ccc(C2=NN(C(=O)CCC(=O)O)C(c3ccc(Br)cc3)C2)cc1 (centres undefined) | inactive: 3.59% |
| Cc1cccc(C)c1NC(=O)CCS(=O)(=O)c1cccc2nonc12 | inactive: 10.1% |
| O=C(CCCN1C(=O)/C(=C/c2cccs2)SC1=S)NNC(=O)c1ccc(F)cc1 | inactive: 11.6% |
| Cc1ccc(N/C=C(\C#N)S(=O)(=O)c2ccccc2)cc1 | inactive: 2.84% |
| Cc1cc(=O)oc2cc(OCC(=O)OCC(=O)N(C)C3CCS(=O)(=O)C3)ccc12 (centres undefined) | inactive: 0.908% |
| CCN1CCN(c2nc(-c3ccccc3)nc3ccccc23)CC1 | inactive: 14.8% |
| N#Cc1c(SCC(=O)Nc2ccccc2)nsc1SCC(=O)Nc1ccccc1 | inactive: 13.4% |
| COc1cccc(NC(=O)N2CCN(C(=O)c3nsc4ccccc34)CC2)c1 | inactive: 22.5% |
| Cc1[nH]c(=O)c(C#N)c(C)c1CCC(=O)N(C)CC(=O)Nc1ccc(Cl)c(Cl)c1 | inactive: 4.99% |
| C#Cc1ccc(NC(=O)C2(C)CCN2C(=O)c2cc(C)n(C)n2)cc1 (centres undefined) | inactive: 16% |
| CCN(CC)C(=O)CSc1nc2ccsc2c(=O)n1CCCC(=O)NCCc1ccc(S(N)(=O)=O)cc1 | inactive: -4.66% |

| Compound | growth rescue (activation) |
| --- | --- |
| CC1(C(=O)NCCc2ccccc2)Cc2c(-c3ccc(C(N)=O)cc3)ccnc2O1 (centres undefined) | inactive: 2.92% |
| O=c1[nH]ncn1-c1ccccc1 | inactive: 7.28% |
| OC(c1ccc(Cl)c(F)c1)c1ncc(-c2ccccc2C(F)(F)F)[nH]1 (centres undefined) | inactive: 12.4% |
| CCCCOc1ccc(/C=C/C(=O)Nc2ccc([N+](=O)[O-])cc2C)cc1 | inactive: 34.6% |
| COc1cc(NC(=S)NCCCN2CCOCC2)c(OC)cc1Cl | inactive: -0.636% |
| Cn1c(=O)n(C)c2cc([N+](=O)[O-])c(N3CCN(C(=O)c4ccccc4Br)CC3)cc21 | inactive: 7.33% |
| CCC1(CC)NC(=O)N(CC(=O)Nc2ccc(OCc3ccccc3)cc2)C1=O | inactive: 9.56% |
| COc1ccc(-c2nc(C#N)c(NCc3ccc(F)cc3)o2)cc1OC | inactive: -0.253% |
| Cc1ccc2cccc(OCc3cccc([N+](=O)[O-])c3)c2n1 | inactive: 19.3% |
| CCOc1ccc(NC(=O)CCn2ccnc2)cc1 | inactive: 1.65% |
| S=c1[nH]nc(COc2ccccc2)n1/N=C/c1ccco1 | inactive: 25.6% |
| Cc1cc(=O)[nH]c(NCCO)n1 | inactive: 1.72% |
| O=C(O)c1ccccc1/C=N/NC(=S)NCc1ccccc1 | inactive: 3.19% |
| CCN1CCC(C(=O)NC(c2ccc(F)cc2)c2ncccc2C)CC1 (centres undefined) | inactive: -3.33% |
| COCCCNC(=O)CC1C(=O)N(Cc2ccccc2)C(C)c2nc3ccccc3n21 (centres undefined) | inactive: 2.47% |
| CCN1CCN(c2nc(-c3ccc(F)cc3)cc(=O)[nH]2)CC1 | inactive: 12.5% |
| O=c1[nH]c(Cc2cccs2)nc2scc(-c3ccc(Cl)cc3)c12 | inactive: 36.7% |
| O=C(Nc1ccccc1)Nc1nc(-c2ccc(F)cc2)cs1 | inactive: 2.93% |
| COc1ccc(NC(=O)c2ccccc2NC(=O)CSc2ccccc2)cc1 | inactive: 1.24% |
| CN(C(=O)COC(=O)c1cc(F)c(F)cc1Cl)c1ccccc1 | inactive: 19.5% |
| Cc1c(C(=O)OCC(=O)N2CCCC2)cccc1[N+](=O)[O-] | inactive: -5.06% |
| COc1cc(CNC(=O)c2cc(-c3ccc(F)cc3C)n[nH]2)cc(OC)c1 | inactive: 1.61% |
| O=C(COC(=O)/C=C/c1ccc(F)cc1)NC1CCS(=O)(=O)C1 (centres undefined) | inactive: 16.2% |
| O=C1CC(c2ccco2)CC(O)=C1C=Nc1ccccc1-c1ccccc1 (centres undefined) | inactive: 9.67% |
| OC(CN1CCCC(C(F)(F)F)C1)c1ccccc1 (centres undefined) | inactive: -3.17% |
| O=C(COC(=O)CNC(=O)c1ccccc1F)NC1CC1 | inactive: -19.4% |

| Compound | growth rescue (activation) |
| --- | --- |
| CN1CCN(S(=O)(=O)c2ccc(NC(=O)c3ccccc3Cl)cc2)CC1 | inactive: 0.926% |
| CC(=O)Nc1ccc(S(=O)(=O)Nc2nc3ccccc3nc2Nc2ccc(C(=O)O)c(O)c2)cc1 | inactive: 2.7% |
| O=C(Nc1ccc(NC(=O)c2cccs2)cc1)c1cccs1 | inactive: 0.303% |
| O=C(c1cc(-c2ccncc2)nc2ccccc12)N1CCOCC1 | inactive: -2.91% |
| CC(C)C(c1nnnn1C1CCCCC1)N1CCN(C(=O)c2ccco2)CC1 (centres undefined) | inactive: 12.7% |
| Cc1ccc(S(=O)(=O)Nc2ccccc2CNC2CCCCC2)cc1 | inactive: -5.67% |
| COc1ccc(N(CC(=O)Nc2cccc(N(C)S(C)(=O)=O)c2)S(=O)(=O)c2ccccc2)cc1Cl | inactive: 1.69% |
| CCc1c(C(=O)Nc2ccc(C)c(C)c2)[nH]c(C)c1C(C)=O | inactive: 0.568% |
| COc1ccccc1N1CCN(C(=O)c2ccc(NS(=O)(=O)c3ccc(C)cc3)cc2)CC1 | inactive: 8.1% |
| COC(C(=O)NNS(=O)(=O)c1ccc([N+](=O)[O-])cc1)c1ccccc1 (centres undefined) | inactive: -11.6% |
| COc1ccc(NC(=O)c2sc3nc(Cc4ccccc4)cc(C(F)(F)F)c3c2N)cc1OC | inactive: 1.18% |
| CC(=O)Nc1ccc2nc(CN3CCC(CO)(CCc4ccccc4)CC3)ccc2c1 | inactive: 24.8% |
| COc1ccc(NC(=O)CC2Nc3cccc4cccc(c34)NC2=O)cc1 (centres undefined) | inactive: -11.4% |
| CCN1CCN(c2cc(C)c3cc(NC(=O)CCC(=O)N4CCN(c5ccccc5)CC4)ccc3n2)CC1 | inactive: -0.395% |
| COCCNc1ncnc2c1ncn2[C@H]1CN(Cc2ccc3c(c2)OCO3)C[C@@H](CO)O1 | inactive: 8.64% |
| COc1ccccc1C(=O)Nc1cccc(C(=O)N2CCOCC2)c1 | inactive: 4.22% |
| CC(NC(=O)/C(C#N)=C1\N=C(NC(=O)c2ccco2)c2ccccc21)c1ccccc1 (centres undefined) | inactive: 5.6% |
| CCOC(=O)c1ccc(NC(=O)CSc2nc(C)c(Cc3ccccc3)c(=O)[nH]2)cc1 | inactive: 19.9% |
| O=C(Nc1ccc(Cl)c(C(F)(F)F)c1)C1Cc2c(-c3ccc4c(c3)OCO4)ccnc2O1 (centres undefined) | inactive: 21.6% |
| O=C(CCC(=O)c1ccc(Br)cc1)Nc1ccc(F)cc1 | inactive: 12.4% |
| CCOCCCNC(=S)N1CCN(Cc2ccco2)CC1 | inactive: -2.72% |
| CCCNC(=S)N1CCC(C(=O)c2ccc3c(c2)OCCO3)CC1 | inactive: 20.5% |
| COc1cccc(-c2cc(C(=O)Nc3ccc([N+](=O)[O-])cn3)c3ccccc3n2)c1 | inactive: 23.4% |
| Cc1ccc(N(Cc2ccc(C(=O)NCC3CCCO3)cc2)S(C)(=O)=O)cc1C (centres undefined) | inactive: 8.03% |
| Cc1cc(-c2nn(-c3ccccc3F)cc2CN2CCCC(C(N)=O)C2)c(C)s1 (centres undefined) | inactive: 1.94% |
| CCc1cccc(CC)c1N(COC)C(=O)Cn1c(C)nc2ccccc21 | inactive: -9.13% |

| Compound | growth rescue (activation) |
| --- | --- |
| CN(Cc1cccnc1)C(=O)c1cc(COc2ccc3c(c2)CCCC3)on1 | inactive: 27% |
| O=C(Nc1ccc(F)c(Cl)c1)C1Cc2ccccc2CN1S(=O)(=O)c1ccc(F)cc1 (centres undefined) | inactive: 13.5% |
| O=C(COC(=O)[C@@H]1CCCN1C(=O)c1cccs1)Nc1ccc(Br)cc1 | inactive: 13.6% |
| O=C(CCc1nc2ccccc2c(=O)[nH]1)OCC(=O)c1ccc(C2CCCCC2)cc1 | inactive: 15% |
| O=C(Cc1ccccc1)NCCN1CCCC1 | inactive: 14.1% |
| CCOc1ccc(C2=Nc3ccc(Br)cc3C(c3ccc(N4CCOCC4)cc3)=NN2)cc1 | inactive: 16.6% |
| CCOC(CNC(=O)c1ccc2c(c1)ncn2-c1cccc(F)c1)OCC | inactive: 1.16% |
| Cn1c(=O)c(=O)n(C)c2cc(S(=O)(=O)NCc3ccc(Cl)cc3)ccc21 | inactive: -14% |
| CCOC(=O)C1(CCCc2ccccc2)CCN(C(=O)CCc2cnccn2)CC1 | inactive: -3% |
| CCCN(CCC)C1CC(=O)N(Cc2ccccc2)C1=O (centres undefined) | inactive: -91.8% |
| Cc1ccc2[nH]c(O)c(N=NC(=O)C(C)n3cnc4ccccc4c3=O)c2c1 (centres undefined) | inactive: -5.33% |
| O=C1c2ccccc2-c2onc3c(N4CCN(CCO)CC4)cc(N4CCN(C(=O)c5ccco5)CC4)c1c23 | inactive: -26.1% |
| Cc1c(C(=O)OCC(=O)NCc2ccc3c(c2)OCO3)cccc1[N+](=O)[O-] | inactive: -16.2% |
| CCc1nc2ccc(C(=O)N3CCCCC3)cn2c1N(CCC(C)C)CCN(C)C | inactive: -10.7% |
| CC(=O)CC(C)(C)Nc1nc2ccc([N+](=O)[O-])cc2o1 | inactive: 8.82% |
| COc1ccccc1Nc1nc(C)nc2c1oc1ccccc12 | inactive: 10.1% |
| Cc1cc(=O)oc2cc(OCC(=O)OCC(=O)N(CCC#N)c3ccccc3)ccc12 | inactive: 4.41% |
| CC1(C)CC(=O)C2=C(C1)Nc1[nH]c(=S)[nH]c(=O)c1C2c1ccccc1 (centres undefined) | inactive: 5.36% |
| Cc1ccccc1Nc1c(-c2ccccc2O)nc2sccn12 | inactive: 13.8% |
| Cc1c(C#N)c(O)n(CCO)c(=O)c1N=Nc1ccccc1 | inactive: 3.06% |
| COc1ccc(CCN2C(=O)c3cccc4c(C(=O)N5CCCCC5)ccc(c34)C2=O)cc1OC | inactive: 10.3% |
| Cc1nnc(SCc2nnc(-c3cccs3)o2)n1C1CCCCC1 | inactive: 0.404% |
| O=C(c1ccccc1)N1CCN(S(=O)(=O)N2CCCCCC2)CC1 | inactive: -6.09% |
| Cc1ccc(/C=C/C(=O)Nc2ccc(S(=O)(=O)Nc3cc(C)nc(C)n3)cc2)cc1 | inactive: 9.24% |
| O=C(CN(C(=O)c1csnn1)c1ccc(F)c(Cl)c1)NCc1ccc2c(c1)OCO2 | inactive: -5.67% |
| O=C(Nc1ccc(S(=O)(=O)Nc2ncccn2)cc1)c1cccnc1 | inactive: 13% |

Reference: PubChem BioAssay AID1347073 (National Center for Advancing Translational Sciences (NCATS), 2019)
